{"source": "the supplement of paper PMC12217912", "parents": {"B1": {"name": "TEV protease; numbered along this chain (parent)", "chain": "MGESLFKGPRDYNPISSSICHLTNESDGHTTSLYGIGFGPFIITNKHLFRRNNGTLVVQSLHGVFKVKDTTTLQQHLVDGRDMIIIRMPKDFPPFPQKLKFREPQREERICLVTTNFQTKSMSSMVSDTSCTFPSGDGIFWKHWIQTKDGQCGSPLVSTRDGFIVGIHSASNFTNTNNYFTSVPKNFMELLTNQEAQQWVSGWRLNADSVLWGGHKVFMVKPEEPFQPVKEATQL"}}, "note": "The other results are listed elsewhere or left out. The full chains were built here from the parent and the listed change. Values near 0.05 are background.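 Note: Bxb1 expression induced with 0.2% (w/v) L-rhamnose at OD600 near 0.5, cultures sampled hourly, flipped fraction per protease–substrate barcode pair counted by paired-end Illumina sequencing.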", "data": [{"variants_of": "B1", "test": "raw area under fraction-flipped curve 0-4 h after induction (AUC4h, not background-subtracted), DNA-recorder readout of cleavage of the substrate (dimensionless); higher = more cleavage of the substrate by the protease variant", "settings": "temperature: 34 °C; time window: 0-4 h after rhamnose induction", "values": [{"variant": "F133H", "area with substrate ENLEFQS": 0.0724, "area with substrate ENLGFQS": 0.0495, "area with substrate ENLHFQS": 0.0639, "area with substrate ENLKFQS": 0.0866, "area with substrate ENLLFQS": 0.0821, "area with substrate ENLMFQS": 0.0706, "area with substrate ENLNFQS": 0.0617, "area with substrate ENLPFQS": 0.0475, "area with substrate ENLQFQS": 0.0797, "area with substrate ENLVFQS": 0.092}, {"variant": "G138S", "area with substrate ENLEFQS": 0.0634, "area with substrate ENLKFQS": 0.0839, "area with substrate ENLQFQS": 0.0623, "area with substrate ENLRFQS": 0.063}, {"variant": "I139C", "area with substrate ENLEFQS": 0.0709, "area with substrate ENLFFQS": 0.0722, "area with substrate ENLMFQS": 0.0961, "area with substrate ENLNFQS": 0.0608, "area with substrate ENLRFQS": 0.0875, "area with substrate ENLSFQS": 0.0587}, {"variant": "R160L", "area with substrate ENLEFQS": 0.069, "area with substrate ENLIFQS": 0.0776, "area with substrate ENLKFQS": 0.0698, "area with substrate ENLPFQS": 0.0579, "area with substrate ENLSFQS": 0.0696}, {"variant": "F173N", "area with substrate ENLEFQS": 0.061, "area with substrate ENLIFQS": 0.0657, "area with substrate ENLKFQS": 0.0689, "area with substrate ENLMFQS": 0.0586, "area with substrate ENLNFQS": 0.0677, "area with substrate ENLPFQS": 0.0604, "area with substrate ENLRFQS": 0.0778}, {"variant": "N175H", "area with substrate ENLEFQS": 0.055, "area with substrate ENLFFQS": 0.106, "area with substrate ENLIFQS": 0.0881, "area with substrate ENLLFQS": 0.0591, "area with substrate ENLQFQS": 0.0548, "area with substrate ENLRFQS": 0.0658, "area with substrate ENLSFQS": 0.0525}, {"variant": "N178H", "area with substrate ENLEFQS": 0.0497, "area with substrate ENLFFQS": 0.0963, "area with substrate ENLGFQS": 0.0573, "area with substrate ENLHFQS": 0.077, "area with substrate ENLIFQS": 0.0764, "area with substrate ENLKFQS": 0.0879, "area with substrate ENLNFQS": 0.0689, "area with substrate ENLRFQS": 0.087, "area with substrate ENLSFQS": 0.0835}, {"variant": "N206Y", "area with substrate ENLEFQS": 0.0699, "area with substrate ENLFFQS": 0.112, "area with substrate ENLGFQS": 0.0613, "area with substrate ENLHFQS": 0.0648, "area with substrate ENLIFQS": 0.0678, "area with substrate ENLLFQS": 0.0808, "area with substrate ENLMFQS": 0.0688, "area with substrate ENLNFQS": 0.0669, "area with substrate ENLPFQS": 0.0384, "area with substrate ENLSFQS": 0.0589}, {"variant": "L211R", "area with substrate ENLEFQS": 0.0139, "area with substrate ENLHFQS": 0.0514, "area with substrate ENLKFQS": 0.0535, "area with substrate ENLNFQS": 0.0828, "area with substrate ENLPFQS": 0.0827, "area with substrate ENLSFQS": 0.0548, "area with substrate ENLVFQS": 0.0803}, {"variant": "V217F", "area with substrate ENLEFQS": 0.0641, "area with substrate ENLKFQS": 0.0746, "area with substrate ENLLFQS": 0.0559, "area with substrate ENLMFQS": 0.0518, "area with substrate ENLNFQS": 0.0439, "area with substrate ENLSFQS": 0.0609, "area with substrate ENLWFQS": 0.0719}, {"variant": "P225Q", "area with substrate ENLEFQS": 0.0852, "area with substrate ENLFFQS": 0.0816, "area with substrate ENLGFQS": 0.0583, "area with substrate ENLHFQS": 0.053, "area with substrate ENLKFQS": 0.121, "area with substrate ENLMFQS": 0.0599, "area with substrate ENLNFQS": 0.0781, "area with substrate ENLRFQS": 0.0945, "area with substrate ENLSFQS": 0.096, "area with substrate ENLWFQS": 0.0707}, {"variant": "F226T", "area with substrate ENLEFQS": 0.0683, "area with substrate ENLFFQS": 0.101, "area with substrate ENLPFQS": 0.0712, "area with substrate ENLRFQS": 0.069, "area with substrate ENLSFQS": 0.081}, {"variant": "V229T", "area with substrate ENLEFQS": 0.121, "area with substrate ENLHFQS": 0.071, "area with substrate ENLKFQS": 0.0877, "area with substrate ENLPFQS": 0.0769, "area with substrate ENLQFQS": 0.0556, "area with substrate ENLSFQS": 0.0726}, {"variant": "V58N", "area with substrate ENLFFQS": 0.0583, "area with substrate ENLNFQS": 0.0561, "area with substrate ENLRFQS": 0.0533, "area with substrate ENLVFQS": 0.0449, "area with substrate ENLWFQS": 0.0335}, {"variant": "H76K", "area with substrate ENLFFQS": 0.0629, "area with substrate ENLHFQS": 0.0677, "area with substrate ENLLFQS": 0.0788, "area with substrate ENLMFQS": 0.052, "area with substrate ENLNFQS": 0.0479, "area with substrate ENLQFQS": 0.0591, "area with substrate ENLSFQS": 0.049}, {"variant": "D82A", "area with substrate ENLFFQS": 0.0787, "area with substrate ENLHFQS": 0.0272, "area with substrate ENLNFQS": 0.0684, "area with substrate ENLPFQS": 0.0773, "area with substrate ENLRFQS": 0.0653, "area with substrate ENLWFQS": 0.0619}, {"variant": "K90N", "area with substrate ENLFFQS": 0.105, "area with substrate ENLHFQS": 0.0689, "area with substrate ENLIFQS": 0.0634, "area with substrate ENLKFQS": 0.0735, "area with substrate ENLMFQS": 0.0851, "area with substrate ENLNFQS": 0.0541, "area with substrate ENLPFQS": 0.0654, "area with substrate ENLQFQS": 0.0561, "area with substrate ENLRFQS": 0.0695, "area with substrate ENLSFQS": 0.0669, "area with substrate ENLWFQS": 0.0659}, {"variant": "L99F", "area with substrate ENLFFQS": 0.0262, "area with substrate ENLKFQS": 0.067, "area with substrate ENLNFQS": 0.0706, "area with substrate ENLPFQS": 0.0585, "area with substrate ENLRFQS": 0.0629, "area with substrate ENLSFQS": 0.0601, "area with substrate ENLVFQS": 0.0856}, {"variant": "V113F", "area with substrate ENLFFQS": 0.0574, "area with substrate ENLKFQS": 0.0921, "area with substrate ENLNFQS": 0.0508, "area with substrate ENLRFQS": 0.0738}, {"variant": "F140T", "area with substrate ENLFFQS": 0.0988, "area with substrate ENLHFQS": 0.0551, "area with substrate ENLKFQS": 0.0657, "area with substrate ENLNFQS": 0.066, "area with substrate ENLPFQS": 0.0527, "area with substrate ENLVFQS": 0.0685}, {"variant": "S171A", "area with substrate ENLFFQS": 0.0693, "area with substrate ENLIFQS": 0.0701, "area with substrate ENLLFQS": 0.121, "area with substrate ENLNFQS": 0.0608, "area with substrate ENLRFQS": 0.0734}, {"variant": "T174Q", "area with substrate ENLFFQS": 0.0894, "area with substrate ENLLFQS": 0.0486, "area with substrate ENLPFQS": 0.0275, "area with substrate ENLRFQS": 0.0758, "area with substrate ENLSFQS": 0.0671, "area with substrate ENLWFQS": 0.0607}, {"variant": "I19A", "area with substrate ENLGFQS": 0.0679, "area with substrate ENLHFQS": 0.0655, "area with substrate ENLKFQS": 0.0699, "area with substrate ENLLFQS": 0.0656, "area with substrate ENLNFQS": 0.0589, "area with substrate ENLQFQS": 0.0767, "area with substrate ENLRFQS": 0.0552, "area with substrate ENLSFQS": 0.0532, "area with substrate ENLWFQS": 0.079}, {"variant": "L211W", "area with substrate ENLGFQS": 0.0729, "area with substrate ENLHFQS": 0.0795, "area with substrate ENLIFQS": 0.1, "area with substrate ENLLFQS": 0.0815, "area with substrate ENLRFQS": 0.0714, "area with substrate ENLSFQS": 0.0861}, {"variant": "F6I", "area with substrate ENLHFQS": 0.0717, "area with substrate ENLKFQS": 0.0538}, {"variant": "Q74Y", "area with substrate ENLHFQS": 0.0651, "area with substrate ENLKFQS": 0.0725, "area with substrate ENLMFQS": 0.0862, "area with substrate ENLNFQS": 0.0824, "area with substrate ENLPFQS": 0.0486, "area with substrate ENLRFQS": 0.0603, "area with substrate ENLSFQS": 0.0709}, {"variant": "D79P", "area with substrate ENLHFQS": 0.0678, "area with substrate ENLKFQS": 0.0433, "area with substrate ENLNFQS": 0.0509, "area with substrate ENLPFQS": 0.0532, "area with substrate ENLQFQS": 0.062, "area with substrate ENLVFQS": 0.0735}, {"variant": "Q197M", "area with substrate ENLHFQS": 0.0696, "area with substrate ENLLFQS": 0.129, "area with substrate ENLNFQS": 0.0723, "area with substrate ENLSFQS": 0.0751, "area with substrate ENLWFQS": 0.0534}, {"variant": "G8Y", "area with substrate ENLIFQS": 0.0625}, {"variant": "R87Y", "area with substrate ENLKFQS": 0.0732, "area with substrate ENLLFQS": 0.068, "area with substrate ENLMFQS": 0.0559, "area with substrate ENLNFQS": 0.0499, "area with substrate ENLQFQS": 0.0736, "area with substrate ENLWFQS": 0.066}, {"variant": "N186G", "area with substrate ENLLFQS": 0.056, "area with substrate ENLPFQS": 0.0698, "area with substrate ENLSFQS": 0.0838, "area with substrate ENLWFQS": 0.0684}, {"variant": "C131V", "area with substrate ENLWFQS": 0.0635}]}]}
